Data published in the RNAGym collection of RNA variant scans (doi:10.1093/nar/gkz1192).
The source gives no read counts; variants with many changes may rest on few reads.

B1: CPEB3 Ribozyme (parent)
chain: UAACAGGGGGCCACAGCAGAAGCGUUCACGUCGCAGCCCCUGUCAGAUUCUGGUGAAUCUGCGAAUUCUGCUGUAUAUCUC

Variants of: B1
Assay: self-cleavage, relative activity (ratio to wild type); higher = more cleavage; in vitro, sequencing
Summary of the method: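 Relative activity compares each variant's cleaved/total read fraction with that of the unmutated ribozyme. To get these fractions, barcoded CPEB3 ribozyme libraries from rounds of error-prone PCR were transcribed with T7 RNA polymerase for 5 hours at 37°C and then given 15 min of DNase I treatment before EDTA was added. The RNAs were reverse transcribed with template switching and sequenced on Illumina, and DNA sequencing linked barcodes to variants. A minimum of 5 reads applied, and three batches were averaged.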

Variant	self-cleavage
C23A U25C A35U U48C A57U U66A U69C	0.04
C23A U25C A75G	0.3
C23A U25C U54A A64G U72A	0.17
C23A U31A U67C	0.07
C23A U31C U48C A57G	0.08
C23A U31G C62G	0.08
C23A U41C A45G	0.15
C23A U51A U80C	0.19
C23A U54C A64U U76A	0.15
C23A U58C U69A	0.13
C23G A28G A45G	0.28
C23G A45G A77G	0.06
C23G A56G U58A A64G G73A	0.02
C23G C27U C34A A47C G70U U80C	0.06
C23G C40A U41A U67C	0.06
C23G G30A U72A	0.04
C23G G63U U66C	0.16
C23G U25C A35G U41C U49G U69G	0
C23G U25C C39U A45C G61A	0.08
C23G U25C U31A G33A U72C	0.53
C23G U25C U41A A57G U66C	0.08
C23G U25C U41C U48C U69C	0.04
C23G U26A A35U U43A A65G U67C G70A	0.03
C23G U26C U54A U74C	0.1

Variant	self-cleavage
C23G U41C U48C C50G U69A A75G	0.08
C23G U43A A64U U67C U72C	0.14
C23G U43A C62U	0.15
C23G U51A U58A G70A	0.07
C23G U58C C59A U66C G70A U78G	0.03
C23U A28G G42A U48C	0.14
C23U A28U A57G	0.1
C23U A28U C71G	0.06
C23U A35G A45U	0.28
C23U A35G U43C A56G A57U G61A U72C	0.04
C23U A35G U48C U51C C79U	0.26
C23U A35G U60C	0.3
C23U A35G U69C	0.17
C23U A47G U49C	0.21
C23U A47G U51C A57G U72C	0.14
C23U A47G U58A U60C	0.31
C23U A64G U72G	0.1
C23U C32A U41A U51C U54C	0.07
C23U C38G G42A	0.07
C23U C40U U43A U49C U51A U72C	0.06
C23U G55A G61A U72C A75U	0.07
C23U U25C A35G U41A U48C	0.07
C23U U25C A57U U67C	0.07
C23U U25C C37A C62A A75G	0.04

Variant	self-cleavage
C23U U25C C38A U43C U54G A64G	0.09
C23U U25C C40U U72A	0.11
C23U U25C U58C G63A A64G	0.12
C23U U26C U74A U78C	0.07
C23U U31C A35G	0.26
C23U U41A U66C	0.18
C23U U41C U48C U58C U74C	0.12
C23U U43A U58C U72A	0.08
C23U U49C A56U A65C	0.31
C23U U49C U58C	0.39
C23U U51A A56G U76C	0.14
C23U U54C A56U A64G A65C U80C	0.11
C23U U54C A65C	0.43
C23U U60A U76C U80A	0.08
C23U U66C U69G A77C	0.06
C23U U72C A75U	0.48
C23U U72C C79A	0.53
G24A A28G A45G U69C A75U A77G	0.11
G24A A35U A47G A65C	0.11
G24A A35U A57G	0.06
G24A A47G U54C U80C	0.26
G24A A56G U58A U66C U74A	0.13
G24A A64G U72C U76A	0.15
G24A A64G U78C	0.08

Variant	self-cleavage
G24A C27A U31G	0.2
G24A C29U G33A A77G	0.07
G24A C38U A65G U69C	0.1
G24A C40U U48C G63U U72C	0.19
G24A C50U U69C	0.24
G24A G30A A45G U51C A75G	0.31
G24A G30U U58C	0.07
G24A G33U A64G U69A	0.12
G24A G42A U43C A57G C79U	0.15
G24A U25A C27U U48C	0.12
G24A U25C A35U A56G	0.07
G24A U26A C27U U51A A57G A75U	0.07
G24A U26C A28G U60A	0.08
G24A U41A U58C U66C	0.05
G24A U41C A45G	0.07
G24A U41C A56G U66A U76A U78C	0.08
G24A U41C U66C U72G	0.09
G24A U41C U69C	0.13
G24A U48C A56U	0.14
G24A U49C A64G	0.13
G24A U49C A65U	0.13
G24A U49C U54C A64G U66A	0.22
G24A U51A A64G U67C U78C	0.12
G24A U51A U67C U80C	0.13

Variant	self-cleavage
G24A U54C U69A	0.17
G24A U54G A56U	0.18
G24A U67C U69A U80C	0.05
G24C A28G U54C A56U	0.07
G24C A45G U58G U67C	0.17
G24C A65U U67G U76C	0.14
G24C C34U U41C U51C	0.35
G24C C37U U41A U54C	0.14
G24C C37U U67C U72A	0.11
G24C U25C U41C U80A	0.21
G24C U31C A65G U80C	0.31
G24C U31C U41A A47G U74C U78C	0.09
G24U A57G U69C	0.13
G24U U25A U43C U54C	0.07
G24U U31C U51G U78C	0.16
G24U U41A A56U U80C C81A	0.07
G24U U49C U54G U60A C81A	0.06
G24U U51C U78C	0.17
G24U U67A G70A U80C	0.17
U25A A28G A45U U49C U51C U54C U74C	0.12
U25A A28G A56G A64G	0.23
U25A A28G C38U A56U U67A	0.12
U25A A28G U41G	0.39
U25A A28G U49G U54A A56C A64C U78C	0.07

Variant	self-cleavage
U25A A28U A57G U60A G63A	0.29
U25A A28U C59A G70U	0.15
U25A A35G A45G	0.15
U25A A35G U80C	0.38
U25A A35U U72A U78C	0.07
U25A A45C A56G	0.23
U25A A45G G55C	0.09
U25A A45G U69A	0.11
U25A A45U A56U U69C	0.06
U25A A45U U80A	0.37
U25A A47U G63A U66C U78C	0.08
U25A A56G U74C A75U U80G	0.16
U25A A56G U78C	0.06
U25A A56U U58A U69C U72A A77G	0.05
U25A C32G A45U A65G	0.05
U25A C37U C40A U49A U67G	0.1
U25A C39G A77G	0.07
U25A C44A U74C	0.39
U25A G30A U49A	0.24
U25A G33C A57G U67A U80C	0.05
U25A G33C U54C A64G U74C U80C	0.1
U25A G46A U51C U54A A56U U58A A65U	0.04
U25A G52A U54C C79A	0.22
U25A G53U A56G U69A	0.25

Variant	self-cleavage
U25A G61A U74C A75G	0.39
U25A G63U U69G	0.16
U25A U26A A35U U78C	0.03
U25A U26C G30U A56G	0.17
U25A U26C U31C C32G U72C	0.06
U25A U26C U43A U58C	0.12
U25A U26C U58C A75U	0.12
U25A U31C C40U G42U G61A	0.08
U25A U31C U43A	0.28
U25A U31C U58A	0.06
U25A U41A U58C	0.15
U25A U41C U51A G70A	0.29
U25A U43A A64G U78C	0.15
U25A U43A A64U U78G	0.08
U25A U43C A45G U60G	0.1
U25A U43C U74A	0.09
U25A U49A C62U U69C	0.13
U25A U49A U78C	0.04
U25A U49C A56G	0.22
U25A U49C U60A	0.06
U25A U51A A57G A75C U76C	0.23
U25A U51C U66C	0.19
U25A U51C U67C	0.14
